{"source": "patent US20230226214A1", "about": "“BIFUNCTIONAL BRIDGING COMPOSITIONS FOR VIRAL TRANSDUCTION” (Lycia Therapeutics, Inc., priority 2020, published 2023)", "system": "human 2V6·11 cells", "test": "Transduction of AAV8-luciferase linked to a cell surface binding moiety via a bridging antibody", "assay_type": "cell-based", "conditions": "AAV8-CMV-Luciferase MOI 5×10^4 preincubated with 1.56-200 ng antibody, 24 hours", "experimental": "In order to assess transduction efficiency of luciferase-encoding AAV8 particles linked to a cell surface binding moiety via an antibody, cells were transduced with AAV8-luciferase and either unconjugated anti-AAV8 antibody (ADK8) or ADK8 conjugated to Compound I-7 (ITX-16590) and then analyzed for luciferase expression.\nIn performing these experiments, human 2V6·11 cells (Elab Science) in DMEM (Gibco) with 10% fetal bovine serum (Gibco) were seeded onto 96-well plates (Nunc) 24 hours prior to infection. AAV8-CMV-Luciferase (Vector Biolabs) at a multiplicity of infection (MOI) of 5×10^4 were preincubated with 1.56-200 ng of ADK8 antibody or Compound I-7 (ITX-16590) conjugated ADK8 antibody for 30 minutes at 37° C. and then added to cells. After 24 hours, the cells were washed with PBS and analyzed for luciferase levels using a luciferase assay kit (Promega) and a luminometer.", "data": [{"molecule": "Compound I-7-conjugated ADK8 antibody: \"ADK8 conjugated to Compound I-7 (ITX-16590)\"; ADK8 is the anti-AAV8 antibody (conjugate) heavy: DVKLVESGGGLVKPGGSLKLSCADSGFSFSSYSMSWVRQTPEKRLEWVATITSGGDYTYYPDSVKGRFTISKDNARNTLYLQMSSLRSEDTAMYYCIRDFYGSTYWYFDVWGAGTTVTVSSAKTTAPSVYPLAPVCGDTTGSSVTLGCLVKGYFPEPVTLTWNSGSLSSGVHTFPAVLQSDLYTLSSSVTVTSSTWPSQSITCNVAHPASSTKVDKKIEPRGPTIKPCPPCKCPAPNAAGGPSVFIFPPKIKDVLMISLSPIVTCVVVDVSEDDPDVQISWFVNNVEVHTAQTQTHREDYNSTLRVVSALPIQHQDWMSGKEFKCKVNNKDLGAPIERTISKPKGSVRAPQVYVLPPPEEEMTKKQVTLTCMVTDFMPEDIYVEWTNNGKTELNYKNTEPVLDSDGSYFMYSKLRVEKKNWVERNSYSCSVVHEGLHNHHTTKSFSRTPGK light: DVVMTQTPLTLSVTIGQPASISCKSSQSLLESDGKTYLNWLLQRPGQSPKRLIYLVSTLDSGVPDRFTGSGSGTDFTLKISRLEAEDLGVYYCWQGTHFPPTFGGGTKLEIKRADAAPTVSIFPPSSEQLTSGGASVVCFLNNFYPKDINVKWKIDGSERQNGVLNSWTDQDSKDSTYSMSSTLTLTKDEYERHNSYTCEATHKTSTSPIVKSFNRNEC", "values": [{"measurement": "transduction efficiency of AAV8-luciferase", "value": "increased compared to transduction of AAV8-luciferase alone"}]}, {"molecule": "Anti-AAV antibody compound conjugate: \"Compound I-7 conjugated ... anti-AAV8 antibody (ADK8)\" (conjugate) heavy: DVKLVESGGGLVKPGGSLKLSCADSGFSFSSYSMSWVRQTPEKRLEWVATITSGGDYTYYPDSVKGRFTISKDNARNTLYLQMSSLRSEDTAMYYCIRDFYGSTYWYFDVWGAGTTVTVSSAKTTAPSVYPLAPVCGDTTGSSVTLGCLVKGYFPEPVTLTWNSGSLSSGVHTFPAVLQSDLYTLSSSVTVTSSTWPSQSITCNVAHPASSTKVDKKIEPRGPTIKPCPPCKCPAPNAAGGPSVFIFPPKIKDVLMISLSPIVTCVVVDVSEDDPDVQISWFVNNVEVHTAQTQTHREDYNSTLRVVSALPIQHQDWMSGKEFKCKVNNKDLGAPIERTISKPKGSVRAPQVYVLPPPEEEMTKKQVTLTCMVTDFMPEDIYVEWTNNGKTELNYKNTEPVLDSDGSYFMYSKLRVEKKNWVERNSYSCSVVHEGLHNHHTTKSFSRTPGK light: DVVMTQTPLTLSVTIGQPASISCKSSQSLLESDGKTYLNWLLQRPGQSPKRLIYLVSTLDSGVPDRFTGSGSGTDFTLKISRLEAEDLGVYYCWQGTHFPPTFGGGTKLEIKRADAAPTVSIFPPSSEQLTSGGASVVCFLNNFYPKDINVKWKIDGSERQNGVLNSWTDQDSKDSTYSMSSTLTLTKDEYERHNSYTCEATHKTSTSPIVKSFNRNEC", "values": [{"measurement": "transduction efficiency of AAV8-luciferase", "value": "increase transduction efficiency"}]}]}
